Laboratory results from the supplement of paper PMC10126150.
Values marked as one replicate rest on one cluster of the flow cell; about a third of the high ones do not repeat.

Test system: ATP
Assay: switch fluorescence ratio, 500 uM ATP over buffer (Cy3 cluster intensity, sum of 5 cycles each) (fold (ratio)); higher = stronger signal-on switching upon ATP binding; sequences stand for … in TCGTCGGCAGCGTCAGATGTGTATAAGAGACAGTTTTTTTTTTTTTTTTTTTTTTTTT…TC
Details: aptamer strand: ATP DNA aptamer (quencher-CACCTGGGGGAGTATTGCGGAGGAAGG + anchor), 100 nM annealed; ATP concentration: 500 uM; one replicate
Summary of the method: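 Cy3-labelled switching-strand clusters on a modified Illumina MiSeq flow-cell were annealed to 100 nM quencher-labelled ATP aptamer, imaged in selection buffer, then imaged after 15 min with 500 uM ATP at 22 °C. Five buffer/ATP cycles ran, with NaOH stripping and re-annealing between them. The fluorescence ratio is summed target-cycle over summed buffer-cycle Cy3 intensity per cluster, averaged per switch-domain sequence. Clusters outside 100-1000 RFU were excluded.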
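Also: ATP exposure 15 min at 22 °C before imaging.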

Row | Sequence | switch fluorescence ratio
1 | TGATTGGACG | 1.02
2 | GGTCAACAGA | 1.01
3 | AGACCTTGTT | 1.02
4 | CATTGAGAAC | 0.963
5 | TAGGTCGGG | 0.984
6 | ATTATGGTAG | 1.01
7 | CAGCTACGTA | 0.979
8 | CAAGATGAGC | 1.03
9 | AAATCAATCA | 0.982
10 | ACTTGTGGTT | 0.95
11 | GGTAGGCTCG | 0.949
12 | AAACGGGAAA | 1.07
13 | TGCTCTCCGG | 1.19
14 | GTTTAAGTCG | 0.97
15 | GACCTTCAAA | 1.01
16 | GTCCTCAGTC | 1.11
17 | GTGCTTTAGG | 0.935
18 | TTGGTAACAG | 1.01
19 | CATGGTGCAA | 1.16
20 | TTAAGCCGTA | 1.02
21 | GTTTGGTGCA | 0.977
22 | ACATTTTATG | 1.01
23 | GTGTTGCGTA | 0.945

Row | Sequence | switch fluorescence ratio
24 | CAGTAATATC | 2.3
25 | TTGGATTACT | 1.02
26 | ATATTGTGCT | 0.96
27 | CAGGTTCTTA | 1.03
28 | TTTCTAAAA | 0.978
29 | GCTCCTAGGA | 1
30 | CTTTTAAACT | 0.986
31 | CTGAGGTCAC | 1
32 | GACACAGG | 1.06
33 | CGCATCAATC | 2.25
34 | TACCTAGGTT | 1
35 | AGGAAACTGC | 0.973
36 | GTGTAGAGTG | 0.957
37 | AAGAGTGTTC | 0.991
38 | AGCTGTTTCT | 0.983
39 | GCGCGAGCAG | 1.01
40 | AGGTTGGGCG | 1
41 | CGCCTCGTGT | 0.982
42 | AGTGTAAGGT | 0.998
43 | TTGCGTGACA | 0.993
44 | CATGCACTA | 1.13
45 | TTTTCAGCTC | 0.988
46 | TAGATAAGTA | 1.02

Row | Sequence | switch fluorescence ratio
47 | TGTGCTGAG | 0.98
48 | TCATAAAGTC | 0.995
49 | GCCCCATGCT | 1.03
50 | AATGCGTCAC | 0.991
51 | ACGTCTTACA | 1.12
52 | GAATGTCTAA | 1.01
53 | GTTCATTCCT | 1.06
54 | GCTGGTGTCA | 0.994
55 | ATTATGGGG | 0.955
56 | CGGTAAAGGC | 1
57 | GGAGCAGATG | 1.4
58 | GGTTCGGGAG | 1.04
59 | CTTGCTGGGT | 1.04
60 | CTCCGGTT | 2.24
61 | ACAGCATTTC | 1.42
62 | TATAGCTGAA | 0.988
63 | AGGAGGCCAC | 2.13
64 | GGAAGAGAAA | 1.03
65 | TACCCGCATG | 2.83
66 | AGTAAATGT | 1.01
67 | GGCCCCACA | 1
68 | TTGATATCAA | 1.03
69 | CTTAGACCGC | 1.11

Row | Sequence | switch fluorescence ratio
70 | ACGTAGAGTG | 1.05
71 | TTTAGGATCG | 1.01
72 | TAACTATACA | 1.19
73 | CCGGT | 0.998
74 | CGTGGTTCCC | 1.05
75 | TTTACACTAA | 1.04
76 | TGCATTCCGG | 1.1
77 | CGATCGTTCG | 1.03
78 | ATTTGATTTA | 0.989
79 | CGGGTGGGGT | 0.999
80 | TCCGGATACG | 1.21
81 | TTGTACGAAT | 0.957
82 | CGAGGCGCTT | 1.01
83 | CACCAATCGA | 1.01
84 | GGGATGATCG | 0.859
85 | CCATAGTTAA | 1.09
86 | AGGTTTCGAC | 0.98
87 | GACATTGAA | 1.05
88 | GTAGTAAAGT | 1.01
89 | ATTGCGCGTA | 1.06
90 | AATAAAGTAT | 0.972
91 | CCATAGACGG | 0.947
92 | GATGGTGAGT | 0.99

Row | Sequence | switch fluorescence ratio
93 | ATCAACTGTT | 0.969
94 | TCCTACATTC | 1.06
95 | TTTCAACTGT | 1
96 | TAACCGTTTT | 1.02
97 | GAGATCGGCT | 1.07
98 | ACCAACATTT | 1.09
99 | TTTTTAGATG | 0.991
100 | CGGACGTGTG | 0.965
101 | TCCCGTTCGG | 1.01
102 | TGACTAGCCG | 1.04
103 | TAAGGAGGAC | 1.02
104 | TATGGGTCCT | 1.03
105 | GTGGATCGCG | 0.959
106 | ATCTATCTAT | 1.03
107 | TCGCATACAT | 1.33
108 | GACCCGAGGA | 1.03
109 | CGATACGCTT | 1.11
110 | TCATAGGCTG | 0.987
111 | AGCCAAGATT | 0.977
112 | CTTCATTGTT | 1.02
113 | TACGACTCTT | 1.07
114 | GACAGCGAGC | 1.02
115 | AAAGGAGGCC | 1.06

Row | Sequence | switch fluorescence ratio
116 | AATGACTAGG | 0.985
117 | AGTGCTACCA | 1
118 | ATAGGGTCCT | 1.04
119 | AAGTAAAGTA | 0.988
120 | AATCGGGGG | 1.16
121 | GCTTTGCGTT | 0.997
122 | AAATTTTAAG | 1.01
123 | ACAGTGGAGG | 1.01
124 | AATAGCAGAC | 1.54
125 | CTTCGTAGTT | 1.05
126 | TCGTTGTTTC | 1.22
127 | CATTTCATCG | 1.01
128 | GGGGGGAAA | 1.03
129 | GAGAAGGCCA | 1
130 | ACACTTTTGG | 1.03
131 | TGTTATCTTG | 0.964
132 | CTTCAGAGAG | 1.01
133 | ACATCCGAAG | 1.32
134 | AATCTGCTAG | 1.08
135 | AGCAGTCACC | 1.02
136 | GCACAGGGTT | 1.11
137 | CGTAGTCTGA | 1.01
138 | CGGAGGCATG | 1.09

Row | Sequence | switch fluorescence ratio
139 | GTGTTGTGTT | 0.998
140 | CAATCTGGGC | 1.16
141 | GGGAGAGGAG | 0.992
142 | GTAGTTGTAT | 0.939
143 | GAAAATTCAG | 0.986
144 | GTAAACATAC | 0.917
145 | TGACTGTCCT | 1.03
146 | TTATCGTCGT | 0.99
147 | TCCAATCACG | 1.04
148 | TCCTGTCC | 1.4
149 | GGAGGGCCAA | 0.985
150 | TCGGCTTAGA | 1.03
151 | CGCGAAATCC | 1.22
152 | CTCAGTATAT | 1.08
153 | CAAGTCTCCG | 1.05
154 | TTGATTGACG | 0.959
155 | TGACAGAACC | 1.08
156 | TAGCTAGAGG | 0.992
157 | TTTCGCCGTA | 0.98
